From PubChem BioAssay AID463173 (ICCB-Longwood Screening Facility, Harvard Medical School, 2010)
The campaign covered roughly 52,000 compounds. About 4,300 (8.3%) were called active. Cut-off read from the data, not from the text of the source: active = survival mostly below about 52% (no sharp cut-off); inactive = mostly above about 56%. Some of the results follow.

What follows are compounds tested on DeltatarO mutant (assay: growth inhibition of S. aureus wild type versus tarO mutant, primary screen, teichoic acid synthesis inhibitors, RN4220, OD600 (AID 463173)). Settings: OD600, 18 h, active compounds read low, screened at 18.75 µg/mL (by protocol).

Row | Structure (SMILES) | survival
1 | CCCCn1c(C)nc2ccccc21 | inactive: 104%
2 | O=C(CSC1=Nc2ccccc2N=C(c2ccc(F)cc2)C1)Nc1cc(F)ccc1F | inactive: 97%
3 | COc1ccc(Cl)cc1NC(=O)CN1c2ccccc2S(=O)(=O)c2ccccc21 | inactive: 75%
4 | Cc1cc(NS(=O)(=O)c2ccc(NC(=O)COc3c(C)cc(Br)cc3C)cc2)no1 | inactive: 110%
5 | O=S(=O)(NCc1ccccc1)c1ccc2[nH]c3c(c2c1)CCCCC3 | inactive: 82%
6 | COc1cccc(NS(=O)(=O)c2ccc3[nH]cc(C(=O)NC4CCCCC4)c(=O)c3c2)c1 | active: 35%
7 | CCCOc1ccc(CNC(=O)C2CCN(c3nc4ccccc4nc3C(F)(F)F)CC2)cc1 | inactive: 75%
8 | CCn1cc2nc(SCc3cccc(OC)c3)n(Cc3ccc(Cl)cc3)c(=O)c2n1 | inactive: 60%
9 | COC(=O)c1cc2sccc2n1Cc1ccccc1 | active: 35%
10 | O=C(CCC1N=C2c3ccccc3N=C(SCc3cccc(F)c3)N2C1=O)NC1CCCCC1 (stereo not drawn) | inactive: 94%
11 | CCS(=O)(=O)c1nc(S(=O)(=O)c2ccc(C)cc2)c(NCc2ccc(Cl)cc2)s1 | inactive: 74%
12 | CCOC(=O)c1ccc(NS(=O)(=O)c2cn(C)c(C)n2)cc1 | inactive: 69%
13 | Cc1ccc(S(=O)(=O)N2CCCc3cc(NC(=O)c4ccc(F)c(F)c4)ccc32)cc1 | inactive: 93%
14 | COc1cccc(C(=O)Nc2cc(-c3ccccc3)nn2-c2ccccc2)c1 | inactive: 88%
15 | O=C(COc1ccc2oc3c(c2c1)CCCC3)Nc1ccc(Cl)cc1 | inactive: 85%
16 | CCOc1ccc(-c2c(C)nn3c(-c4ccccc4)c(C(=O)NCCOC)cnc23)cc1OCC | active: -5%
17 | CCOc1ccc(C(=O)Nc2ccc(C(=O)OCc3cc(=O)n4nc(CC)sc4n3)cc2)cc1 | inactive: 83%
18 | COC(=O)c1ccc(NC(=O)N2CCC(CN3CCc4ccccc4C3)CC2)cc1 | active: 6%
19 | COc1ccc(NC(=O)CSc2ccc(-c3cccs3)nn2)cc1 | inactive: 87%
20 | COc1ccc(/C=C/C(=O)N2CCC(c3nc4ccccc4o3)CC2)cc1 | inactive: 83%

Row | Structure (SMILES) | survival
21 | Cc1cccc(C)c1OCC(=O)N1CCC(c2nc3ccccc3o2)CC1 | inactive: 86%
22 | Nc1c(C(=O)NCc2ccc3c(c2)OCO3)nnn1CC(=O)Nc1ccc(Br)cc1 | inactive: 55%
23 | COc1ccc(NC(=O)CN(C)S(=O)(=O)c2ccc(C(=O)N3CCOCC3)s2)cc1 | inactive: 101%
24 | Cc1cc(SCC(=O)Nc2ccc(Cl)cc2)nc2ccccc12 | inactive: 65%
25 | Cc1ccc(Cn2cc(C(=O)c3ccc(C)cc3)c(=O)c3ccc(C)nc32)cc1 | active: 24%
26 | CCc1ccc(-c2cc(C)no2)cc1S(=O)(=O)Nc1ccc(Cl)cn1 | active: 17%
27 | Cc1cccc(NC(=O)CSc2cn(CC(=O)N3CCCC3)c3ccccc23)c1C | inactive: 99%
28 | CC(=O)N1CCCc2cc(S(=O)(=O)N3CCCC(C(=O)NCc4ccccc4)C3)ccc21 (stereo not drawn) | inactive: 90%
29 | CCOc1ccc(NC(=O)Cn2cc(C(=O)c3ccc(OCC)cc3)c(=O)c3cc4c(cc32)OCCO4)cc1 | inactive: 71%
30 | CN(C)S(=O)(=O)N1CCC(n2cnc3cccnc32)CC1 | inactive: 89%
31 | CC(=O)N1CC=C2C(C#N)=C(N)C(C#N)(C#N)C(C)C2C1 (stereo not drawn) | inactive: 83%
32 | COc1ccccc1Cn1c(CNS(=O)(=O)c2ccc(CC(C)C)cc2)nc2cccnc21 | inactive: 95%
33 | Cc1ccc(CCNC(=O)c2cc3cc4cc(C)ccc4nc3s2)cc1 | active: 46%
34 | COc1ccc(NC(=O)N(C(C)C)C2CCN(C(C)=O)CC2)c(OC)c1 | active: -2%
35 | COC(=O)Cc1c(C)c2cc3c(c(C)c2oc1=O)OCN(CCc1ccc(F)cc1)C3 | inactive: 44%
36 | COc1cccc(NC(=O)CN2C(=O)COc3ccc(S(=O)(=O)N4CCCCCC4)cc32)c1 | inactive: 74%
37 | O=C1C2=C(Nc3ccccc3SC2c2ccc(Cl)c(Cl)c2)c2ccccc21 (stereo not drawn) | active: 22%
38 | O=C(NCC1COc2ccccc2O1)c1cn(Cc2ccc(F)cc2)nn1 (stereo not drawn) | inactive: 80%
39 | CCOC(=O)c1cc(S(=O)(=O)Nc2ccc(OC(F)(F)F)cc2)[nH]n1 | inactive: 66%
40 | CCC1CN(C(=O)N2CCC(C(=O)NCc3cc(OC)ccc3OC)CC2)c2ccccc2O1 (stereo not drawn) | inactive: 71%

Row | Structure (SMILES) | survival
41 | COc1ccc(NC(=O)CSc2nc(-c3ccc(OC)cc3)cc(=O)[nH]2)cc1 | inactive: 139%
42 | Cn1c(C(=O)NCc2ccc(F)cc2)cc2cc(S(=O)(=O)N3CCCCC3)ccc21 | inactive: 126%
43 | COc1cc(OC)c(NC(=O)c2cc3c(s2)-c2ccc(Cl)cc2SC3)cc1Cl | inactive: 89%
44 | Cc1cccc(N2CCN(C(=O)C3CCN(Cc4nc(-c5ccc(Cl)cc5)oc4C)CC3)CC2)c1C | inactive: 60%
45 | Cc1nonc1OCC(C)(N)COc1nonc1C | inactive: 96%
46 | CCc1nn2c(-c3ccco3)ccnc2c1-c1ccccc1 | inactive: 84%
47 | COc1ccc(C)cc1S(=O)(=O)Nc1cccc(-c2ccc(N3CCC(C)CC3)nn2)c1 | active: -2%
48 | N#CCN(CC#N)C(=O)C1c2ccccc2Oc2ccccc21 | inactive: 89%
49 | Cc1ccc(CNC(=O)c2cc(C3CC3)nc3c2c(C)nn3-c2cccc(Cl)c2C)cc1 | inactive: 107%
50 | N#CC(C#N)=C1c2ccccc2-c2nc(C#N)c(C#N)nc21 | active: 4%
51 | CCCN(CCC)C(=O)c1c[nH]c2ccc(S(=O)(=O)Nc3cc(C)cc(C)c3)cc2c1=O | inactive: 80%
52 | Cc1ccc(NC(=O)c2nc(S(=O)(=O)Cc3cccc(C)c3)ncc2Cl)cc1 | active: -3%
53 | Cc1ccc(N2C(=O)c3oc4cc(C)c(C)cc4c(=O)c3C2c2cccc(O)c2)nc1 (stereo not drawn) | inactive: 84%
54 | O=C(NCc1ccccc1Cl)c1cnc(N2CCCCC2)c2ccccc12 | inactive: 102%
55 | CCN(C(=O)Cn1c(SCC(=O)NCc2ccccc2)nc2ccccc21)c1cccc(C)c1 | inactive: 65%
56 | COC(=O)c1cc(S(N)(=O)=O)c(C)o1 | inactive: 72%
57 | COc1ccc(-c2cc3ccc(O)c(CN4CCN(CCO)CC4)c3oc2=O)cc1OC | inactive: 67%
58 | O=C(Nc1cccc(Cl)c1Cl)c1cc2nc(-c3ccc4c(c3)OCO4)cc(C(F)(F)F)n2n1 | inactive: 96%
